Measurements taken from paper PMC12767070.
Results are given in words; binding and its absence hold for the method and conditions named. Binding seen in cells or lysates may run through a third protein. Some entries that bind do so weakly or less than the wild type. For some assays here: Sequences can lack the tags named with a protein.

Sequences of proteins named here, by UniProt entry; tags and fusion partners are left off.
UniProt Q9R190: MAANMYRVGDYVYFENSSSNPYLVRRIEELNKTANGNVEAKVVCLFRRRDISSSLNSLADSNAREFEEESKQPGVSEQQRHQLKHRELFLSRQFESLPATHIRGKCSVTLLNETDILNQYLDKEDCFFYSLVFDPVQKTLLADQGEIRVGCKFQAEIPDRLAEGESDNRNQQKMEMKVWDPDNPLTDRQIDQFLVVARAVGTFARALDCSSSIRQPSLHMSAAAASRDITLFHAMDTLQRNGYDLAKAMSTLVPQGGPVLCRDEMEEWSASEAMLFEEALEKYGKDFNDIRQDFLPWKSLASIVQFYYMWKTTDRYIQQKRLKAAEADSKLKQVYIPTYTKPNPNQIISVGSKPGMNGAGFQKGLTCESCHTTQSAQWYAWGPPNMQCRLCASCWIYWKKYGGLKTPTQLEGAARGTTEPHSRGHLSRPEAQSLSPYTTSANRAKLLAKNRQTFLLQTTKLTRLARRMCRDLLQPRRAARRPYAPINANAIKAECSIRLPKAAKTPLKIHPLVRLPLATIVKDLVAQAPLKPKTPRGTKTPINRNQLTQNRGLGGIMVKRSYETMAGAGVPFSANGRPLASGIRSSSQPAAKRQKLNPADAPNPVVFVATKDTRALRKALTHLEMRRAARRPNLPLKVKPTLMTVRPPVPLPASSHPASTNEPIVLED

Assays:
[1] = target: T1, high mobility group box 2 (HMGB2), endogenous mouse (mouse (endogenous in neonatal mouse myocardium and NMCMs)) (UniProt P30681); assay: co-IP; endogenous proteins in P1 mouse myocardium at 7 dpr; HMGB2 or MTA2 antibodies, Western blot
T1 sequence: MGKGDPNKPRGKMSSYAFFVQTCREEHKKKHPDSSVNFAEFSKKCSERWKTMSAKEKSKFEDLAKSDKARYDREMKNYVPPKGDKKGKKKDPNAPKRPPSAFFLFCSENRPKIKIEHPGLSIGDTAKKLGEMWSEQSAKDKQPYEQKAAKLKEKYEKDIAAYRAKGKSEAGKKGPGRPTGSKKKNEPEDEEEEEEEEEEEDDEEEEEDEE

[2] = target: T1, high mobility group box 2 (HMGB2), endogenous mouse (mouse (endogenous in neonatal mouse myocardium and NMCMs)); assay: co-IP; endogenous proteins in NMCM lysate; primary antibody overnight at 4 °C, rProtein A/G magnetic beads, Western blot
[3] = target: T2, Flag‐HMGB2‐full‐length (210 amino acids) (UniProt P30681); assay: co-IP; HEK293T cells transfected with HA-MTA2-FL and full-length or truncated Flag-HMGB2 plasmids; lysate, rProtein A/G magnetic beads, Western blot
T2 sequence: T1 sequence

[4] = target: T3, Flag‐HMGB2∆165 (165 amino acids) (UniProt P30681); assay: as above
T3 sequence: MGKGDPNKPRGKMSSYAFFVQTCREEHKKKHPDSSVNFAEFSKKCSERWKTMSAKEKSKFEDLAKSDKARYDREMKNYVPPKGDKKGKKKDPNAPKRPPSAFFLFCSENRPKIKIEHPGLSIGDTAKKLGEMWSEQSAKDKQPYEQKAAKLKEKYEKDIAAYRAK

[5] = target: T4, Flag‐HMGB2∆79 (79 amino acids) (UniProt P30681); assay: as above
T4 sequence: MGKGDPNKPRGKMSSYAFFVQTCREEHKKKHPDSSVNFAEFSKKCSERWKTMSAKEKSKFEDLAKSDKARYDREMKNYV

binding [1]	binding [2]	binding [3]	binding [4]	binding [5]	Substance
binds	binds	–	–	–	metastasis‐associated protein 2 (MTA2), endogenous mouse (from UniProt Q9R190 1-668)
–	–	binds	binds	no binding	HA‐MTA2‐full‐length (from UniProt Q9R190 1-668)
